# Screen size: about 150,000 compounds; about 540 (0.36%) showed an effect of 50% or more. This is one part of the list.
# Tested on: Plasmodium falciparum
# Assay: Primary screen in NF54 nanoGlo assay, in single point, at 2uM, 72h; a lower Z score goes with more inhibition
# Assay type: functional, Erythrocyte
# Conditions: timepoint 72 hour
SMILES,% Inhibition [%],Z score
O=C(c1ccc(-c2ccco2)[nH]c1=O)N1CCCN(Cc2ccc(Cl)cc2)CC1,7,-1.22
C[C@H]1CCN(CC(=O)N2CCC(c3nc4ccccc4o3)CC2)C1=O,-3,0.52
Cc1c(Cl)cccc1NC(=O)CCN(C)Cc1cc2cc(F)ccc2[nH]1,0,0.07
CCO[C@@H](C(=O)NC1CCS(=O)(=O)CC1)c1ccccc1,-9,1.44
Cc1nccn1CCCC(=O)NC[C@H](O)c1ccc(C(C)(C)C)cc1,3,-0.46
O=C(O)Cc1sc(-c2ccc(Br)cc2)nc1-c1ccc(Oc2ccccc2)cc1,-2,0.38
CN1CC[C@H](CNc2ccnc3c(F)cc(Cl)cc23)CC1=O,4,-0.74
CC[C@@]1(C)COCCN1C(=O)c1ccnc(C2CC2)n1,-4,0.69
C[C@H]1CCCN(Cc2cccc3c2OCCO3)C1,-13,1.88
COc1cc(CN2CC[C@H](NC(=O)c3ccncc3)[C@@H](O)C2)ccc1F,-9,0.8
COc1cccc(NC(=O)N2CCC(N3C(=O)COCC3=O)CC2)c1,24,-3.15
COc1ccc(S(=O)(=O)C2CNC2)cc1,-8,0.88
O=C(Nc1ccccn1)C(=O)N1CCCC1,-10,1.32
CCN(CC)C(=O)c1cn(C[C@H]2CCCN(C(=O)c3cc(OC)c(OC)c(OC)c3)C2)nn1,-18,2.64
Cn1cc(CCC(=O)Nc2cc([C@H]3CCCOC3)[nH]n2)cn1,-4,0.66
CCOC(=O)C1CCN(C(=O)Cn2c(=O)n(C)c(=O)c3cnn(-c4ccccc4)c32)CC1,-7,1.22
CO[C@@H](CNC(=O)Nc1ccccc1C(F)(F)F)c1ccsc1,-6,0.82
Cc1cccc(NC(=O)CN(C)CCF)c1C,-8,1.08
COC[C@H](C)Nc1cccc(N(C)C(C)C)c1,3,-0.29
COc1ccc(NC(=O)Cn2nc3c4ccc(Cl)cc4ncn3c2=O)cc1OC,2,-0.4
COC(=O)C1CCN(Cc2cn(C[C@@H](C)CC(C)C)nn2)CC1,-21,2.86
Cc1cccc(N2C(=O)c3cccnc3[C@@H]2CC(=O)NC2CCCC2)c1,1,-0.1

SMILES,% Inhibition [%],Z score
CC(C)N(C(=O)N1CCOCC1)C1CCCC1,-2,0.2
Cn1c(CO[C@H]2CCCc3c[nH]nc32)cc(=O)n(C)c1=O,1,-0.12
C[C@@H](Cn1cccn1)c1nc(C2CC2)n[nH]1,7,-0.88
Cc1ccc2c(c1)NC(=O)c1cc(S(=O)(=O)N(C)c3c(C)cccc3C)ccc1O2,-11,1.61
O=C(c1cnc(CC2CC2)s1)N1CCC2(CC1)C[C@H](O)CNC2=O,-12,2
CCCc1nc(CN(CC)CC(=O)N(C)C)cs1,-9,1.08
COCCn1cc(S(=O)(=O)N2CC[C@H](O)CC(C)(C)C2)cn1,1,-0.19
COCCCNC(=O)C1Cc2cc(C(F)(F)F)ccc2N2CCN(c3ccc(OC)cc3)CC12 (stereo not given),-9,1.44
COc1ccc(-c2csc3ncnc(Nc4cnn(C)c4)c23)cc1,-4,0.68
Cc1cnc(CN2CC3(CCC2=O)CCN(Cc2ccccc2C#N)CC3)cn1,-11,2.11
N[C@H]1CN(C(=O)c2ccc3ncccc3c2)C[C@@H]1C1CC1,-4,0.46
OCC[C@H]1CN(Cc2ccc(-c3ccn[nH]3)o2)CCN1Cc1ccco1,5,-0.66
Cc1nn2c(Nc3ccc(C(C)C)cc3)c3c(nc2c1-c1ccccc1)CCC3,1,-0.26
Cc1ccc(S(=O)(=O)NCCc2nc3c(F)cccc3n2C)cc1,-18,2.78
CCOC(=O)N1CCC(NC(=O)c2ccc(-c3cc(N)ncn3)cc2)CC1,-2,0.31
N#Cc1cc(C(=O)N2CCc3c2cccc3C(F)(F)F)c[nH]1,-4,0.84
CCc1nn(C)cc1NC(=O)[C@@H]1CCc2ccc(OC)cc21,0,-0.03
NC(=O)c1ccc(N2CCC(C(F)(F)F)CC2)nn1,-13,1.59
Cc1ccc(CNC(=O)NCC(=O)N2CCC[C@H]2c2cc(C)on2)cc1,1,-0.23
CCC1(CNS(=O)(=O)c2ccsc2C#N)CC1,-6,0.75
C[C@H]1CN(C(=O)c2cccs2)CCN1C(=O)c1cccs1,1,-0.18
COc1ccnc(CN2CCC[C@H](c3nc(-c4ccccc4)c[nH]3)C2)c1OC,69,-7.6

SMILES,% Inhibition [%],Z score
O=C(CNS(=O)(=O)Cc1ccccc1)Nc1cccnc1,-3,0.52
O=C(Nc1ccc(CNc2ccccc2)cc1)[C@H]1CCCOC1,-7,0.9
Nc1nc2c(c(N3C[C@H]4CC=CC[C@H]4C3)n1)CCNCC2,-14,1.4
Cc1ccc(N2C(=O)CN(CC(C)C)[C@H]3CS(=O)(=O)C[C@H]32)cc1,37,-1.17
Cc1cccc([C@@H]2CCCN2C(=O)CCc2ccn(C)n2)n1,-30,3.47
CCc1nnc(CN(CC)C(=O)Nc2cc(C)ccc2-n2cnnn2)o1,-30,3.06
CO[C@H]1CCOC[C@@H]1NC(=O)NC(c1ccccc1Cl)C(C)C (stereo not given in full),-6,1.2
CC1CCN(CN2CC(=O)N(Cc3ccccc3C#N)C2=O)CC1,-7,0.71
CNC(=O)C1(N2CCC[C@H]2C(=O)NCc2ccccc2)CCCCC1,26,-2.98
O=C([C@@H]1C=CCN1)N(CC1CC1)C1CCCCC1,-12,1.26
Cc1c[nH]c([C@H](C)NC(=O)c2cc3ccccc3o2)n1,-15,1.53
CC[C@@H](c1ccncc1)N(CC)C(=O)c1cc(Cn2cc(C)cn2)on1,-14,2.03
Cc1cc(=O)n(CC(=O)Nc2ccc(N(C)C)cc2)c(-c2ccccc2)n1,-8,1.35
CCc1ncc(CN2CCC3(CCC(=O)N(CCOC)C3)CC2)cn1,-4,0.79
COCc1cc(NC(=O)N2CCC([C@@H]3CCCO3)CC2)ncn1,-8,1.06
Cc1ccc(CN(C)C(=O)C2CCN(c3ccc4nncn4n3)CC2)o1,-18,2.81
CCNS(=O)(=O)C1CCN(c2nnc(C)n2CC2CCOC2)C1 (stereo not given),-3,0.24
Cc1ccc(N(CC(=O)N2CCCCC2)C(=O)c2cnns2)cc1,-18,2.72
CN(C)[C@H]1CCCCN(C(=O)c2ccc3nonc3c2)C1,-2,0.37
COc1ccccc1N1CCN(C(=O)c2cnn3c(-c4ccc(-c5ccccc5)cc4)ccnc23)CC1,-1,0.19
O=C(C1CCCC1)N1CCN(C(=O)C2CC2c2ccc3c(c2)OCO3)CC1 (stereo not given),-26,4.43
O=C1[C@H]2CN(S(=O)(=O)c3ccc(F)cc3)CCN2C(=O)N1CCO,-1,0.22

SMILES,% Inhibition [%],Z score
Cc1cc2nc(-c3ccccc3)cc(C(=O)N3C[C@@H](O)C[C@H]3CO)c2cc1C,7,-1.14
CN1CCN(CC2(CS(C)(=O)=O)CC2)c2ccc(Cl)cc21,2,-0.33
O=C(NCC(=O)N1CC2(CC2)Oc2ccccc21)N1CCCC1,-11,1.35
Cc1ncsc1CNC1CCCCC1CCCO (stereo not given),-7,1.09
COc1ccc([C@@H](CC(=O)NCCN2CCOCC2)c2cn(Cc3ccccc3)c3ccccc23)cc1OCc1ccccc1,-1,0.12
O=C(CC[C@H]1CCCN(c2ccc(C(F)(F)F)cn2)C1)N1CCN(c2ccccn2)CC1,-11,1.65
CNC(=O)[C@@H]1CCCN1S(=O)(=O)c1cccnc1,23,-2.55
CC(C)CNC(=O)C(=O)Nc1cc(Br)ccc1F,-7,1
O=C(Nc1nncs1)[C@H]1CCCN(C(=O)c2ccc(F)cc2Cl)C1,-3,0.29
CC(C)c1nocc1C(=O)NCc1cccc2occc12,0,0.06
O=C(NC[C@H](O)c1ccc(-c2cccs2)s1)c1ccsc1,10,-1.36
Cn1cc(CNc2ncc(Br)c3ccccc23)cn1,-5,0.7
O=C(CO)Nc1ccc(OC(F)(F)F)c(Br)c1,22,-2.81
C1=CC[C@H]2CN(c3ccncc3)C[C@H]2C1,-18,1.67
CC(C)c1ccc([C@@H](C)CC(=O)NCC#N)cc1,-5,0.73
O=C(Nc1cc(F)ccc1F)N1CCc2ccccc2[C@@H]1c1ccc(Cl)cc1,-4,0.52
CS(=O)(=O)C1CC2CCC(C1)N2S(=O)(=O)Cc1ccccc1 (stereo not given),-11,1.34
Cc1nc2c(C#N)cnn2c(C)c1CCC(=O)N1CCC[C@H]1c1nnc2ccccn12,-14,1.28
O=C(NCc1ccc(N2CCOCC2)cc1)c1cn(C[C@H]2CCCO2)nn1,-4,0.51

# Reference: ChEMBL document CHEMBL4888484, “Replenishing the malaria drug discovery pipeline: Screening and hit evaluation of the MMV Hit Generation Library 1 (HGL1) against asexual blood stage Plasmodium falciparum ,using a nano luciferase reporter read-out” (2022)
